From PMC11995724, “Antibiotic target discovery by integrated phenotypic and activity-based profiling of electrophilic fragments” (Cell chemical biology, 2025)
Hit rate of the full screen: of about 3,200 compounds, about 75 (2%) showed an effect of 50% or more. Some of the results follow.

System: T1, S. aureus MSSA476
T1 construct: MSSA476
Design: species or system S. aureus MSSA476 (TSB) or V. cholerae SAD30 (LB); 384-well bacterial growth screen at 25 uM, OD600 relative to DMSO control
Details: relative growth, OD600, TSB; 25 µM; inhibitor

Compared with C=CC(=O)N(Cc1cn(C)nc1-c1ccc(F)cc1)C1CC(C)C1 (stereo not shown) [1-P09, N-{[3-(4-fluorophenyl)-1-methyl-1H-pyrazol-4-yl]methyl}-N-(3-methylcyclobutyl)prop-2-enamide], Cc1ccc(N2CCCC2CNC(=O)CCl)cc1 (stereo not shown) [7-H14, 2-chloro-N-{[1-(4-methylphenyl)pyrrolidin-2-yl]methyl}acetamide] is lower in “% of control remaining” value: 106.901% for the first, 83.2025% for the second.

First: O=C(CCl)Nc1ncc(Cc2ccccc2Cl)s1 [4-P07, 2-chloro-N-{5-[(2-chlorophenyl)methyl]-1,3-thiazol-2-yl}acetamide]
Second: O=C(CCl)Nc1cc(S(=O)(=O)N2CCCC2)ccc1Cl [6-G14, 2-chloro-N-[2-chloro-5-(pyrrolidine-1-sulfonyl)phenyl]acetamide]
The “% of control remaining” value of the first is higher: 107.099% for the first, 93.2195% for the second.

First: C=CC(=O)NC(C)c1cn(-c2ccccc2)nn1 (stereo not shown) [1-N04, N-[1-(1-phenyl-1H-1,2,3-triazol-4-yl)ethyl]prop-2-enamide]
Second: C=CC(=O)NCc1ccccc1S(=O)(=O)NC [1-N03, N-{[2-(methylsulfamoyl)phenyl]methyl}prop-2-enamide]
The “% of control remaining” value of the first is higher: 95.6484% for the first, 86.1538% for the second.

First: N#CC(=Cc1cc(F)ccc1F)C(=O)NC1CCCC1 [8-I12, 2-cyano-N-cyclopentyl-3-(2,5-difluorophenyl)prop-2-enamide]
Second: Cc1nn(C)c(C)c1C=C(C#N)C(=O)Nc1cccc(Cl)c1C [9-M20, N-(3-chloro-2-methylphenyl)-2-cyano-3-(1,3,5-trimethyl-1H-pyrazol-4-yl)prop-2-enamide]
The “% of control remaining” value of the first is lower: 78.3402% for the first, 103.371% for the second.

Compared with C=CC(=O)N1CCC(c2nc3c(s2)CCC3)CC1 [3-I22, 1-(4-{4H,5H,6H-cyclopenta[d][1,3]thiazol-2-yl}piperidin-1-yl)prop-2-en-1-one], C=CC(=O)Nc1ncccn1 [1-M12, N-(pyrimidin-2-yl)prop-2-enamide] is lower in “% of control remaining” value: 90.2046% for the first, 75.2527% for the second.

Going from O=C(CCl)NSc1ccc([N+](=O)[O-])cc1 [4-P13, 2-chloro-N-[(4-nitrophenyl)sulfanyl]acetamide] to Cc1ccc(N(CCC#N)C(=O)CCl)cc1 [4-M15, 2-chloro-N-(2-cyanoethyl)-N-(4-methylphenyl)acetamide], the “% of control remaining” value rises from 1.906% to 113.578%.

COc1ccc(C=C(C#N)C(=O)Nc2ccccc2[N+](=O)[O-])cc1 [8-G03, 2-cyano-3-(4-methoxyphenyl)-N-(2-nitrophenyl)prop-2-enamide] was tested, and the “% of control remaining” value was 119.502%.
